Experimental data taken from article PMC4336329 (PLoS ONE, 2015).
About 2,200 (0.71%) of roughly 310,000 compounds showed an effect of 50% or more. Effects have a minus sign here. This is one part of the list.

Each compound was assayed against human ether-à-go-go-related gene (hERG) potassium channel (human, UniProt Q12809) (assay: primary screen, population patch clamp on CHO cells stably expressing hERG).
human ether-à-go-go-related gene (hERG) potassium channel, sequence (Q12809 whole entry, looked up): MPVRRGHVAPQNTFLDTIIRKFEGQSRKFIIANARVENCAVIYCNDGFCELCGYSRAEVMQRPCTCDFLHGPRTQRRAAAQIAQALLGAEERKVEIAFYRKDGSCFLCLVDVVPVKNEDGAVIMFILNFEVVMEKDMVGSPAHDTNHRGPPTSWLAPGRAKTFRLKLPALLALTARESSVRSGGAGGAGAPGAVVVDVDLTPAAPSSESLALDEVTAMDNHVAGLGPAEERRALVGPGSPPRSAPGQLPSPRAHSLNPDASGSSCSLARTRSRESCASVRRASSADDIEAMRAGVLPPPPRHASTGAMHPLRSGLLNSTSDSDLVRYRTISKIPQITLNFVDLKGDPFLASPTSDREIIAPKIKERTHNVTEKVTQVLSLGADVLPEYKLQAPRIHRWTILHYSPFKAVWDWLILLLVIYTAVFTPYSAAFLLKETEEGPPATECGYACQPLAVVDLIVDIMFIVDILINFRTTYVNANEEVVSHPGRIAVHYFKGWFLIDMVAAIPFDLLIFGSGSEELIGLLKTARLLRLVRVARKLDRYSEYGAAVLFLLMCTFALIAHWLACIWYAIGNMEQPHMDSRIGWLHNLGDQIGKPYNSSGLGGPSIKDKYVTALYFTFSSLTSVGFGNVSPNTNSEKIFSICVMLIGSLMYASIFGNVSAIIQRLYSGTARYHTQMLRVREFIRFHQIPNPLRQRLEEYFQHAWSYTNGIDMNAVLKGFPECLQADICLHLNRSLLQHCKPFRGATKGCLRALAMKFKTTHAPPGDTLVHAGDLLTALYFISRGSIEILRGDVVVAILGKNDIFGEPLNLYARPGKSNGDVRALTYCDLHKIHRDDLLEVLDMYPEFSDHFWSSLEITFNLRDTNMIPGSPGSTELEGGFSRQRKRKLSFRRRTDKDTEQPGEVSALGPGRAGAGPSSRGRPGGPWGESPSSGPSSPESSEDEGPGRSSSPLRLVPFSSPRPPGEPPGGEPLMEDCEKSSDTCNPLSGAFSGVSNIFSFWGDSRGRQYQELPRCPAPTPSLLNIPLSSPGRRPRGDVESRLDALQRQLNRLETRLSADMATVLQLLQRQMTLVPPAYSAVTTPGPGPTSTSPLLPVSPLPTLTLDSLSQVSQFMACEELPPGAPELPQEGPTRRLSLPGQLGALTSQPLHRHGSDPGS

Compound	hERG current change (%, negative = inhibition) at 1uM
CCOc1nc(C)ccc1-c1noc(-c2ccco2)n1	14.6%
Cc1ccc(C)c(S(=O)(=O)Nc2ccc(S(=O)(=O)Nc3ncccn3)cc2)c1	7.95%
CCOC(=O)c1c(C)[nH]c(C(=O)OCC(=O)N(C)C2CCS(=O)(=O)C2)c1C (centres unmarked)	14.7%
CC1=C(C(=O)Nc2ccccc2)C(c2ccc3c(c2)OCO3)C2=C(CCCC2=O)N1 (centres unmarked)	2.37%
COC(=O)c1ccc(Oc2coc3cc(OCc4ccc([N+](=O)[O-])cc4)ccc3c2=O)cc1	17.4%
COc1ccc(-c2cc(C)nc3nc(N)nn23)cc1	8.6%
O=C(Nc1ccc(S(=O)(=O)N2CCCCC2c2cccnc2)cc1)c1c(F)cccc1F (centres unmarked)	-0.692%
COc1ccc(CCC(=O)Nc2nnc(C(C)(C)C)s2)cc1	18.1%
CC1CCC(=C(C#N)c2nc(-c3cc4ccccc4oc3=O)cs2)CC1 (centres unmarked)	11%
CN1CC[n+]2cnc3ccccc3c21.[I-]	6.59%
COc1ccc(C2c3[nH]c4ccccc4c3C[C@H]3C(=O)N(c4ccccc4C(=O)N4CCC(C(=O)O)CC4)C(=O)N23)cc1 (some centres unmarked)	6.39%
Cc1ccc(C(=O)O/N=C(\N)Cc2cccs2)c(Cl)c1	10.5%
CCn1c(C)nc2cc(C(=O)NNS(=O)(=O)c3ccccc3F)ccc21	9.14%
O=C1COc2ccccc2CN1	1.27%
CSCCNC(=O)c1cccc(Cl)c1	7.13%
Cc1sc2nc(CN3CCOCC3)nc(Cl)c2c1C	9.31%
Cc1ccc(N2CC(C(=O)Nc3nnc(C(C)C)s3)CC2=O)cc1 (centres unmarked)	-1.03%
CCN(CC)C(=O)c1ccc(N(Cc2ccccc2)S(C)(=O)=O)cc1	8.58%
O=C(c1ccc(Br)o1)N1CCN(CCc2ccncc2)CC1	-22.4%
Cc1c(N=NC2=C(O)CCCC2=O)c(=O)n(-c2ccccc2)n1C	10.9%
COC(=O)C1=C(CSc2nncn2C)NC(=O)NC1c1cc(C)ccc1C (centres unmarked)	1.2%
CCN(CC)CC(O)CCCCCCCCC(=O)OC.Cl (centres unmarked)	10.6%
CC(Sc1nnc(-c2ccco2)n1-c1ccccc1)C(=O)NCC1CCCO1 (centres unmarked)	4.72%

Compound	hERG current change (%, negative = inhibition) at 1uM
O=C(Nc1ccc(Cl)cc1)N1CCCN(Cc2ccccc2F)C1	3.95%
CCOC(=O)Cc1nnc(NC(=O)C(CC)Sc2nc(C)cc(=O)[nH]2)s1 (centres unmarked)	7.24%
O=C(COc1cc(O)c2c(=O)cc(-c3ccccc3)oc2c1)c1ccc(F)cc1	19.9%
N#Cc1c(-c2cccc(Br)c2)cc(-c2ccco2)[nH]c1=O	14.1%
CC(C)(C)C(=O)Nc1ccc(S(=O)(=O)Nc2nccs2)cc1	2.17%
NC(=O)[C@@H]1CC2(CC(c3cccc(NC(=O)CC(c4ccccc4)c4ccccc4)c3)=NO2)CN1C(=O)COc1ccc(Cl)cc1 (some centres unmarked)	13.4%
COc1ccccc1N1CCN(C(=O)C2CCC(Cn3c(=S)[nH]c4ccccc4c3=O)CC2)CC1 (centres unmarked)	14.3%
COc1cccc(Cn2nnc(C(=O)NCCc3ccc(Cl)cc3)c2N)c1	10.3%
Nn1c(SCC(=O)Nc2ccc3c(c2)OCO3)nnc1C1CC1	12.4%
O=C(Cc1n[nH]c(=O)c2ccccc12)OCC(=O)c1ccc2c(c1)OCCO2	8.37%
CCCCCC(=O)Nc1ccc(C(=O)COC(=O)Cn2cnc3c2c(=O)n(C)c(=O)n3C)cc1	20.8%
Cc1sc(NC(=O)c2ccco2)c(CN2CCN(Cc3ccccc3)CC2)c1C	1.36%
Cn1c(N)c(C(=O)c2ccc(C#N)cc2)c(=O)n(C)c1=O	19.6%
Cc1occc1C(=O)Nc1cccc(Cl)c1Cl	-4.2%
CC(c1nc2ccccc2o1)N1C(=O)c2ccccc2C1=O (centres unmarked)	5.67%
O=C(NC(=S)Nc1ccccc1N1CCOCC1)c1ccc(-c2cc(Cl)ccc2Cl)o1	3.19%
COc1ccc(CN(C)S(=O)(=O)c2nnc(NC(=O)c3ccccc3)s2)cc1OC	12.8%
Nc1n[nH]c(N)c1N=Nc1ccc(F)cc1	18.5%
CC(C)(C)CN1CCN(CC#Cc2ccccc2)CC1CCO (centres unmarked)	6.12%
O=C(C1=C(O)C(=O)N(CCN2CCOCC2)C1c1cccs1)c1cc2ccccc2o1 (centres unmarked)	10.9%
O=C(Cn1ccc2cc(S(=O)(=O)N3CCCC3)ccc21)NCCc1ccccc1	8.33%
CN(C)S(=O)(=O)c1cccc(C(=O)Nc2ccc3c(c2)CCC3)c1	-7.72%
O=C(Cc1ccsc1)Nc1cc(F)ccc1F	15.8%

Compound	hERG current change (%, negative = inhibition) at 1uM
CCOC(=O)COc1ccc(/C=C2/SC(=Nc3ccccc3)N(Cc3cccnc3)C2=O)cc1OC	8.74%
COc1ccc(CNC(=O)C(=O)NCC2OCCN2S(=O)(=O)c2ccc(OC)cc2)cc1 (centres unmarked)	6.85%
COc1cc2[nH]c(=S)nc(NCCc3ccc(S(N)(=O)=O)cc3)c2cc1OC	17.2%
COc1ccc(/C=N/NC(=O)c2ccc[nH]2)cc1	14.9%
Cc1ccccc1S(=O)Cc1ccc(C(=O)NCCCN2CCCCC2)o1 (centres unmarked)	15%
CCCCN(CC)CCNC(=O)C1c2cc(OC)c(OC)cc2C(=O)N2CCc3ccccc3C12 (centres unmarked)	3.99%
CC(C)(C)c1ccc(C(=O)NCC(=O)OCC(=O)Nc2nc(-c3ccc(F)cc3)cs2)cc1	11.3%
COc1ccc(/C=C/CN2CCN(CCc3ccccc3)C(CCO)C2)cc1 (centres unmarked)	-61.7%
Cc1ccccc1NC(=O)CSc1nc(COc2ccccc2)nc2ccccc12	15.1%
Cc1cc(C)c(C(=O)/C=C/c2ccco2)c(=O)[nH]1	1.67%
CC(=O)c1nc(N2C(=O)CC(Cc3cc(C)cc(C)c3)C2=O)sc1C (centres unmarked)	-0.0235%
O=C(CSc1nnc2c(n1)[nH]c1ccc(F)cc12)Nc1ccccc1F	16%
C=CCn1c(-c2c(C)nc3cc(C)ccn23)n[nH]c1=S	4.71%
Cc1cccc2c1cnn2C(=O)CCC(=O)NC1CCCCC1	10.5%
Cc1cc([N+](=O)[O-])ccc1NC(=O)c1csc(C)c1C	11%
Cc1ncc(C[n+]2csc(CCOC(=O)CC3C4CC5CC(C4)CC3C5)c2C)c(N)n1.Cl.[Cl-] (centres unmarked)	-1.19%
O=C(c1ccc(N2CCOCC2)cc1)N1CCCC(Nc2ccccc2)C1 (centres unmarked)	10.7%
O=C(NCc1ccc(Cl)cc1)C1CCN(S(=O)(=O)c2cccc3nonc23)CC1	8.68%
CC(=O)Nc1nnc(SCC(=O)N2C(C)CCCC2C)s1 (centres unmarked)	13.1%
N#CC1=C(N)Oc2cc(O)c(Cl)cc2C1c1cccnc1 (centres unmarked)	0.0661%
CCc1ccc(CCC(=O)Nc2sc(C)c(C)c2C(=O)OC)o1	6.99%
CCN(CC)C(=O)C(=O)Nc1ccc(OC)c(Cl)c1	10.3%
CC(=O)Nc1ccc(S(=O)(=O)NC2(C(F)(F)F)C(=O)NC(C)=C2C#N)cc1 (centres unmarked)	10.4%

Compound	hERG current change (%, negative = inhibition) at 1uM
O=c1oc2ccccc2c(O)c1C=NCc1ccccn1	3.75%
Cc1ccc(NC(=O)Cn2nnc(C(=O)NCc3ccco3)c2N)c(C)c1	10.7%
Cc1ccc(S(=O)(=O)NC(CC(C)C)C(=O)N2CCC(C)CC2)cc1 (centres unmarked)	8.25%
Clc1cccc(Cl)c1C1N2CCCN12 (centres unmarked)	11.2%
Cl.O=C(CCCN1CCc2[nH]c3ccc(F)cc3c2C1)c1ccc(F)cc1	-28.9%
CC(C)(C)NC(=O)/C=C/c1cccs1	17.1%
S=C(NCCc1ccccc1)Nc1ccc(Br)cc1	9%
CCOc1ccc(S(=O)(=O)N/N=C2/CCCC(=O)C2)cc1	6.43%
CCCCCCC(=O)OCC(=O)c1ccc2c(c1)NC(=O)CO2	15%
Cc1c(NC(=O)CSc2nnc3c4ccccc4n(CCc4ccccc4)c3n2)c(=O)n(-c2ccccc2)n1C	7.75%
CC(C)Nc1nc(Cl)nc(Nc2ccccc2)n1	8.51%
Cn1cc(CCNC(=O)CC2C(=O)NCCN2CC(c2ccccc2)c2ccccc2)cn1 (centres unmarked)	11.4%
COc1ccc(N2CCN(c3n[nH]c(N)n3)CC2)cc1	10.1%
C/C(=N\NC(=O)c1cccc(S(=O)(=O)N2CCCC2)c1)c1cccs1	5.16%
CSc1cccc(NC(=S)N(CCCN2CCCC2)Cc2cccn2Cc2ccc(Cl)cc2)c1	6.94%
CCC1(c2ccccc2)C(=O)N(C(=O)OC(C)(C)C)N1C(=O)OC(C)(C)C (centres unmarked)	20.4%
O=C(c1cnn2cccnc12)N1CCN(Cc2ccc3c(c2)OCO3)CC1	14.9%
CC(C)(C)C(=O)NC1CCSC1=O (centres unmarked)	13%
COc1cccc(/C=N/NC(=S)NCc2ccco2)c1OC	11.3%
Cl.OC1CN=C2C=CC=CN2C1 (centres unmarked)	0.821%
